In all, about 310,000 compounds went through this assay and about 2,200 (0.71%) showed an effect of 50% or more. The effect is printed as a negative number. The list shows a part of the results.

The target in this test is human ether-à-go-go-related gene (hERG) potassium channel (human, UniProt Q12809). The test can be described thus: primary screen, population patch clamp on CHO cells stably expressing hERG.
Chain of human ether-à-go-go-related gene (hERG) potassium channel (Q12809 whole entry, looked up): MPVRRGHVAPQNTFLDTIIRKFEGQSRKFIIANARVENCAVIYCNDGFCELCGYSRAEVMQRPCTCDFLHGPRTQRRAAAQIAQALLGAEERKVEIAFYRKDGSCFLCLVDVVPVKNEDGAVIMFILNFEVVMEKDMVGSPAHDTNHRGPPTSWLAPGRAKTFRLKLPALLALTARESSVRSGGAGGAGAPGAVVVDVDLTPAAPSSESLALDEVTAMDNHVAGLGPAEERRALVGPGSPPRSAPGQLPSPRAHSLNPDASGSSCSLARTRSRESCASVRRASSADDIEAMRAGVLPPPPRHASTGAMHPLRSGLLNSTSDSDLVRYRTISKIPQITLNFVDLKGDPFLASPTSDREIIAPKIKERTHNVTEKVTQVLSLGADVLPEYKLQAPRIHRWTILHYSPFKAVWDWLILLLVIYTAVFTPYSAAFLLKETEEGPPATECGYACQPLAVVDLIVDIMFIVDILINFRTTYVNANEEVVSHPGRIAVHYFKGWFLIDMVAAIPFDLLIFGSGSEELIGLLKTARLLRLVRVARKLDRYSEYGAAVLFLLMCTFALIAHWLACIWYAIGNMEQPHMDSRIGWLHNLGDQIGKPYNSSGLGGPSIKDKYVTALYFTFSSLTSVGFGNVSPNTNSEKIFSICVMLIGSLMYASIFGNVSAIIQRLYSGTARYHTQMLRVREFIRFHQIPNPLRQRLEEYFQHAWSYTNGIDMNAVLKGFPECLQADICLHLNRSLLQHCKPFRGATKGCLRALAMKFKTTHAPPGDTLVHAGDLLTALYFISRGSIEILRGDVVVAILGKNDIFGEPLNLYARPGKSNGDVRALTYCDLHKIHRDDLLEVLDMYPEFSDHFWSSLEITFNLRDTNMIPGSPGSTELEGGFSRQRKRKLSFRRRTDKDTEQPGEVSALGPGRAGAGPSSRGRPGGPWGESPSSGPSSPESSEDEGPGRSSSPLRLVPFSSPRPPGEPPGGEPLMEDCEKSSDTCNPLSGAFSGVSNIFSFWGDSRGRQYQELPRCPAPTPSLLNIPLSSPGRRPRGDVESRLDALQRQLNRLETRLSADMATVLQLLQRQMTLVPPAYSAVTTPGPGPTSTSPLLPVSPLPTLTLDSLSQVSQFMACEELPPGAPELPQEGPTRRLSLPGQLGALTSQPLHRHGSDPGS
As for `CCCCCCC[n+]1ccc(-c2cc[n+](CCCCCCC)cc2)cc1.[I-]`, the “hERG current change (%, negative = inhibition) at 1uM” value was found to be 0.751%.

Turning to `Clc1ccc(C2NCCc3sccc32)cc1` (centres unmarked), the “hERG current change (%, negative = inhibition) at 1uM” value stood at 3.2%. Regarding `O=C(COc1ccc(S(=O)(=O)N2CCOCC2)cc1)N1CCN(Cc2ccc3c(c2)OCO3)CC1`, the “hERG current change (%, negative = inhibition) at 1uM” value is -1.37%. In the case of `Clc1ccc(C2Nc3cccc4cccc(c34)N2)cc1Cl`, the “hERG current change (%, negative = inhibition) at 1uM” value was 19.6%. In the case of `COc1ccc2[nH]cc(CCN=C3SCC(=O)N3C)c2c1`, the “hERG current change (%, negative = inhibition) at 1uM” value came out at 12.1%.

On to `COc1cc(/C=C2\CCC(C3CCCC3)C2=O)cc(OC)c1OC` (centres unmarked), for which the “hERG current change (%, negative = inhibition) at 1uM” value was found to be 13.2%. Consider `O=C(NC(=S)N1CCN(c2ccc([N+](=O)[O-])cc2)CC1)c1ccccc1F`, for which the “hERG current change (%, negative = inhibition) at 1uM” value was -0.874%. Regarding `FC(F)(F)c1nnc(-c2ccccc2)nc1N1CCCC1`, the “hERG current change (%, negative = inhibition) at 1uM” value is on record as 14.8%. On to `C=CCn1c(=NC(=O)C2COc3ccccc3O2)sc2cccc(OC)c21` (centres unmarked), for which the “hERG current change (%, negative = inhibition) at 1uM” value was 21.1%. To `COc1cc(CNC(C)c2ccccc2)c(Br)cc1OCC(N)=O` (centres unmarked) belongs -12.9%. Regarding `O=C(O)C1C2C=CC(C2)C1C(=O)NCc1ccc(Cl)c(Cl)c1` (centres unmarked), the “hERG current change (%, negative = inhibition) at 1uM” value stood at 1.51%. To `O=C(OCC(=O)N1CCN(C(=O)c2ccco2)CC1)c1cncc(Br)c1` belongs 6.76%; to `CCOC(=O)C1=C(CN2c3ccccc3CC2C)NC(=O)NC1c1ccccc1` (centres unmarked), 5.1%; to `COc1ccc(CCNC(=O)C2CC(c3ccccc3F)=NO2)cc1` (centres unmarked), 4.69%. On to `COc1ccc(-c2cn3c(C)c(C(=O)Nc4cc(NC(C)=O)ccc4OC)sc3n2)cc1`, for which the “hERG current change (%, negative = inhibition) at 1uM” value turned out to be 11.1%.

For `CC(=O)Nc1nc(N(C)C)nc(N(C)C)n1`, the “hERG current change (%, negative = inhibition) at 1uM” value came to 40%. With `CCOC(=O)C1CCN(c2c(NC3CCCc4ccccc43)c(=O)c2=O)CC1` (centres unmarked), the “hERG current change (%, negative = inhibition) at 1uM” value is listed as -0.516%. In the case of `Clc1ccc(-c2noc(CN3CCCC3)n2)cc1`, the “hERG current change (%, negative = inhibition) at 1uM” value was determined as 6.91%. In the case of `O=c1[nH]c(Nc2ccc3c(c2)OCCO3)nnc1Cc1ccccc1` it was 9.82%; in that of `CN(C)c1ccc(N=Nc2cccc(F)c2)cc1`, 3.51%; in that of `COc1ccccc1NC(=O)c1c(NC(=O)c2ccco2)sc2c1CCC2`, 9.16%. Regarding `O=C(CNC(=O)c1ccc(Br)cc1)NCC(=O)OCc1ccc(Cl)cc1`, the “hERG current change (%, negative = inhibition) at 1uM” value was 5.88%.

For `C=CCn1c(SCC(=O)Nc2ccccc2C)nc2sc(C)c(C)c2c1=O`, the “hERG current change (%, negative = inhibition) at 1uM” value is 10.7%. In the case of `COc1cccc(NC(=O)C(c2ccccc2)N2CCN(c3ccccn3)CC2)c1` (centres unmarked) it was 5.91%; in that of `COc1ccc(-c2nc(CN3CCN(c4ncnc5ccccc45)CC3)c(C)o2)c(OC)c1`, -22.1%; in that of `Cc1cc(Br)ccc1SCC(=O)N1CCN(S(=O)(=O)c2ccccc2)CC1`, 5.34%.

On to `O=C(COC(=O)c1cc(=O)c2ccccc2o1)Nc1ccc2ccccc2c1`, for which the “hERG current change (%, negative = inhibition) at 1uM” value is recorded as 9.79%.

`CC(C)(C)S(=O)(=O)c1cnc(N2CCOCC2)nc1N`: the “hERG current change (%, negative = inhibition) at 1uM” value was 11%. In the case of `c1ccc2cc3[nH]c(CN4CCCCC4)nc3cc2c1`, the “hERG current change (%, negative = inhibition) at 1uM” value was -14.2%. In the case of `CN(NC1OC(=O)c2ccccc21)c1ncc(Cl)cc1C(F)(F)F` (centres unmarked) it was 9.3%; in that of `CCOC(=O)c1ccccc1NC(=S)N1CCC(N2CCCCC2)CC1`, 1.08%; in that of `O=C1CSC2=NCN(c3ccccc3)CN12`, 18.9%. Consider `c1ccc(CCNc2nc(-c3ccncc3)cs2)cc1`, for which the “hERG current change (%, negative = inhibition) at 1uM” value is given as 9.61%. Consider `COCc1cc(=O)n2[nH]c(C(F)(F)F)nc2n1`, for which the “hERG current change (%, negative = inhibition) at 1uM” value turned out to be 14.1%. To `COc1cccc(S(=O)(=O)N2CCN(C(=O)c3ccco3)CC2)c1` belongs 7.64%; to `Fc1cccc(-c2cc3nc4c(c(N5CCOCC5)n3n2)CCCC4)c1`, 5.66%. Consider `COc1cccc(NC(=O)CNC(=O)c2ccc([N+](=O)[O-])cc2)c1`, for which the “hERG current change (%, negative = inhibition) at 1uM” value was determined as 7.93%. As for `CC(NC(=O)C(=O)NN=C1CCCC1)c1ccccc1` (centres unmarked), the “hERG current change (%, negative = inhibition) at 1uM” value is listed as 5.08%. For `CCc1ccccc1NC(=O)c1ccc2snnc2c1`, the “hERG current change (%, negative = inhibition) at 1uM” value was 1.38%. To `CN1C(=O)C(CC(=O)NC2CCCCC2)N(C)C1=O` (centres unmarked) belongs 12.8%; to `COc1cc(/C=C/C(=O)N2CC(C)OC(C)C2)cc(OC)c1OC` (centres unmarked), 15.4%. As to `O=C1OC(N2C(=O)CC[C@H]2C(=O)Nc2ccc(F)c(F)c2)c2ccccc21` (some centres unmarked), the “hERG current change (%, negative = inhibition) at 1uM” value is given as 8.61%.

On to `O=C(Nc1cccc(S(=O)(=O)NC2=NCCC2)c1)c1cnc(Cl)c(Cl)c1`, for which the “hERG current change (%, negative = inhibition) at 1uM” value stood at 5.12%. Consider `COC(=O)c1cc(CN2C(=O)c3ccccc3C2=O)c(O)c([N+](=O)[O-])c1`, for which the “hERG current change (%, negative = inhibition) at 1uM” value worked out at 9.14%.

For the origin of these results see paper PMC4336329 (PLoS ONE, 2015).
